The % Inhibition is the drop in the measured response relative to a control, in per cent.

Molecules are shown by their SMILES. The whole screen tested about 150,000 compounds, of which about 540 (0.36%) showed an effect of 50% or more. Some of the results follow.

The subject of the assay is Plasmodium falciparum. Description: Primary screen in NF54 nanoGlo assay, in single point, at 2uM, 72h; a lower Z score goes with more inhibition. The class given is functional, Erythrocyte. Conditions: timepoint 72 hour.
As to `CC(C)(C)CN(C(=O)COC[C@H]1CCCO1)c1ccccn1`, the “% Inhibition” value is given as -11% and the Z score is 1.44.

`C=CC[C@@H]1N(CCN2C(=O)CCC2=O)CCCC1(C)C`: the “% Inhibition” value is 2% and the Z score was -0.35.

With `Cc1cc(N2CCOCC2)ccc1NC(=O)C(=O)NCCc1ccc2c(c1)OCO2`, the “% Inhibition” value came out at 3% and the Z score is reported as -0.45.

Take `COc1ccccc1CCc1nc2ccccc2n1C1CCNCC1`: the “% Inhibition” value was 1% and the Z score is -0.22.

Regarding `CN(CCNC(=O)Cc1ccc(F)c(Br)c1)C1CC1`, the “% Inhibition” value is listed as -3% and the Z score came out at 0.35.

Take `CCN1CCCn2nc([C@H]3CCCN(Cc4cc(C)nn4C)C3)cc2C1=O`: the “% Inhibition” value is reported as -12% and the Z score stood at 2.28.

Turning to `c1ccc2c(N[C@H]3CCOC[C@@H]3OCC3CC3)nccc2c1`, the “% Inhibition” value is on record as -10% and the Z score came out at 1.1.

As to `O=c1c2ccccc2nnn1Cc1nnc(-c2ccccc2Br)o1`, the “% Inhibition” value is -5% and the Z score was 0.59.

For `CCN(C[C@H]1CCOC1)C(=O)c1cc(-c2ccco2)[nH]n1`, the “% Inhibition” value is on record as -13% and the Z score turned out to be 1.99.

Consider `CCn1nc(C)c(CNS(=O)(=O)CC[C@H]2CCCO2)c1C`, for which the “% Inhibition” value is recorded as -1% and the Z score amounted to 0.18.

As to `COc1ccc([C@@H]2CCCN2C(=O)CCc2c(C)noc2C)cc1OC`, the “% Inhibition” value was -6% and the Z score was 1.02.

With `CC1CCN([C@@H]2[C@H](O)[C@H](CO)O[C@@H]2CNS(=O)(=O)c2cccs2)CC1`, the “% Inhibition” value is 15% and the Z score is -1.77.

`O=C(Nc1cnccc1O)[C@@H]1CCN(c2cc(Cl)ccc2Cl)C1=O`: the “% Inhibition” value is reported as -5% and the Z score worked out at 0.84.

On to `Cc1nc2c(n1CCO)CC[C@H](NC(=O)c1ccn3ccccc13)C2`, for which the “% Inhibition” value is recorded as -7% and the Z score turned out to be 1.26.

`CN1CCc2[nH]nc(C(=O)N(C)Cc3nc4cc(Cl)ccc4[nH]3)c2C1`: the “% Inhibition” value was 5% and the Z score is reported as -0.86.

`CCc1noc(NCc2cc(F)ccc2F)c1C`: the “% Inhibition” value is listed as -21% and the Z score is reported as 2.48.

Consider `CN(C)[C@@]1(c2nnnn2C2CCCC2)CCN(C(=O)c2ccccn2)C1`, for which the “% Inhibition” value was -11% and the Z score came to 1.31.

Take `c1ccc(C2=C(CN3CCCCC3)[C@@H](c3ccccc3)c3ccccc3O2)cc1`: the “% Inhibition” value was -8% and the Z score stood at 0.9.

With `Cc1cccc(C)c1NCC(=O)NC[C@H](O)c1ccsc1`, the “% Inhibition” value was -1% and the Z score is on record as 0.05.

Turning to `O=C(C1CCC1)N1CCOC[C@H](Oc2cnccn2)C1`, the “% Inhibition” value is reported as 35% and the Z score is recorded as -3.99.

On to `Cc1c(C(=O)Oc2ccccc2C(C)C)cnn1-c1ccncc1`, for which the “% Inhibition” value is given as 8% and the Z score is -0.79.

Regarding `CC1CCCCCN1C(=O)C1CC2C=CC1C2` (centres undefined), the “% Inhibition” value is given as -17% and the Z score stood at 1.52.

For the molecule `CCOC(=O)Cc1csc(NC(=O)NC[C@@H](CO)Cc2ccc(OC)c(O)c2)n1`, the “% Inhibition” value came out at 5% and the Z score is -0.92.

On to `C[C@H]1c2ccsc2CCN1Cc1nnc(C(C)(C)C)o1`, for which the “% Inhibition” value is -5% and the Z score is reported as 0.58.

For the molecule `COc1ccc2cc(-c3n[nH]cc3CN(C)Cc3nonc3C)ccc2c1`, the “% Inhibition” value is given as -12% and the Z score is reported as 1.58.

Regarding `O=C(NCCn1nc(C2CC2)ccc1=O)c1ccno1`, the “% Inhibition” value is recorded as 14% and the Z score is -1.8.

Turning to `CCCN(CCC)CC(=O)N[C@@H](C)c1ccco1`, the “% Inhibition” value is reported as -13% and the Z score amounted to 1.37.

For `Cc1c(C(=O)N2CC(n3cc(CO)nn3)C2)cc(-c2ccccc2)n1C`, the “% Inhibition” value was -4% and the Z score was 0.73.

Take `CN(C)C(=O)N1CCC(Nc2ccc(C3CC3)c(F)c2)CC1`: the “% Inhibition” value was -5% and the Z score came out at 0.69.

As to `Cc1cccc(OC2(C(=O)O)CCN(C(=O)c3cscn3)CC2)c1`, the “% Inhibition” value was -6% and the Z score is 0.51.

`O=C(Nc1nnc(-c2cccs2)o1)c1ccc2c(c1)OCO2`: the “% Inhibition” value is -16% and the Z score stood at 1.81.

For the molecule `O=C(Nc1ccc2c(c1)OCO2)c1nn(Cc2ccccc2)c(=O)c2ccccc12`, the “% Inhibition” value is given as -12% and the Z score came to 2.15.

Take `CCN1C[C@H](CN(C)C(=O)c2cc(S(=O)(=O)N(C)C)ccc2N2CCCC2)Oc2ccccc21`: the “% Inhibition” value is -11% and the Z score is reported as 1.53.

Regarding `CCCCN(Cc1cccnc1)Cc1cccnc1N`, the “% Inhibition” value was -5% and the Z score came to 0.59.

For `O=C(Cc1nc(-c2cccc(F)c2)no1)Nc1ccc(F)cc1`, the “% Inhibition” value was -12% and the Z score is listed as 2.1.

With `CCCc1cc(C(=O)N2C[C@H](N)C[C@H]2C(=O)NC(C)C)cs1`, the “% Inhibition” value is reported as -6% and the Z score worked out at 0.55.

Take `Cc1ccc([C@H](CNC(=O)COc2ccc(Cl)cc2)N2CCN(C)CC2)o1`: the “% Inhibition” value is recorded as 1% and the Z score is reported as -0.12.

Take `COCC1(NC(=O)[C@H](C)n2ccnc2)CCCC1`: the “% Inhibition” value is given as -13% and the Z score was found to be 2.65.

With `Cc1cnc(C)c(N2CCC(n3nccc3NC(=O)c3cccnc3)CC2)n1`, the “% Inhibition” value is -8% and the Z score came out at 0.84.

For `Cc1ccc(C(=O)N(C(=O)CCC(=O)O)c2c(C)n(C)n(-c3ccccc3)c2=O)cc1`, the “% Inhibition” value is 5% and the Z score was -0.7.

As for `Cc1cn2nc(C(=O)N3CCCCC3)cc2c(N(C)Cc2ccccc2)n1`, the “% Inhibition” value is on record as -11% and the Z score came out at 1.39.

As for `CCCn1c(C)cnc1C1CN(C(=O)c2cccs2)C1`, the “% Inhibition” value is listed as -11% and the Z score was found to be 1.39.

The values above are taken from ChEMBL document CHEMBL4888484, “Replenishing the malaria drug discovery pipeline: Screening and hit evaluation of the MMV Hit Generation Library 1 (HGL1) against asexual blood stage Plasmodium falciparum ,using a nano luciferase reporter read-out” (2022).
